# Results reported in article PMC12136788.
# The other results are listed elsewhere or left out.
# T1: UNK ZnF1-3 (human, UniProt Q9C0B0 31-174)
# T1 sequence: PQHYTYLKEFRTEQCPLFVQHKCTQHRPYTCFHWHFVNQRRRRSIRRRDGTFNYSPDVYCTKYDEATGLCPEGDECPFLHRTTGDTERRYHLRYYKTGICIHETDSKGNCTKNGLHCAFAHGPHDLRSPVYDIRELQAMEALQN
# B1: 125334109_125334363_2357_CDS_ENSMUSG00000030655_ENSMUST00000032891|mouse|control|control (ssRNA)
# RNA: GGGAGUUCUACAGUCCGACGAUCAUCAAAUAAGGAAGGGGAUGAAGAGCUAAGACUACUGGAUAUGAAGUGAUCGUGCCUGGUACAAUGGGAAUACAGGGUGUAGAGCACCGCAUACUGAAUGGCAGGGAAGUGAACAGCCAGCAACAGAGGAUUGAGCAUCA
# B2: chr2:157388187:157388188:+_ENSMUSG00000067786_ENSMUST00000109526|mus_mus|motif|central (ssRNA)
# RNA: GGGAGUUCUACAGUCCGACGAUCUUUUGGUGGAGGUGGUCCCUGUCUCCAGGAGCUUACAAUCUAGCUGGGGAGACACGGCGGAUGCACACUUAAACCAGUACAAUUAGCGACUACCACAAUAUUGACCACAACUGCUGCGUGCAACAGAGGAUUGAGCAUCA
# B3: chr18:42480448:42480449:+_ENSMUSG00000024491_ENSMUST00000091920|mus_hu|motif|central (ssRNA)
# RNA: GGGAGUUCUACAGUCCGACGAUCGAAGUGUUCAUUGAGCUUGGUAAUGUUGUUCAAUUCCUGAGGGAUUUUCUUGACUUCGGAUUUGGUGUUUGUAUACUGAUUCUUUCGUAAGAACCCUGGUUUAUUUUGAUUGUUAUUUCCCAACAGAGGAUUGAGCAUCA
# B4: chr4:33332862:33332863:-_ENSMUSG00000040128_ENSMUST00000049357|mus_mus|motif|central (ssRNA)
# RNA: GGGAGUUCUACAGUCCGACGAUCUAUAUACAAAACACCACCACAGCUGCAGGGCAAAAUACAUACUUUCAUAACAAAACGGUAAUGUCCUCUCAAGUAUGAACAAUGUACACAUAAUACAUGGUAUACAGUAUUUACAAAAUACAACAGAGGAUUGAGCAUCA
# B5: chr17:63010574:63010575:-_ENSG00000120063_ENST00000439174|hu_mus|FALSE|FALSE (ssRNA)
# RNA: GGGAGUUCUACAGUCCGACGAUCGAAGCAUUCCACCAGAAACUUUUGGACGUCUCUUAAGCAGUGGGGGUCCCCUUCAAAUUCUAGGAAAUAGUCUUUGAUGCUAACAACUUGCACUUUCUCCUCGAGCAAGUCUGUCUUGUUCAACAGAGGAUUGAGCAUCA
# B6: chr9:110451384:110451385:+_ENSMUSG00000044791_ENSMUST00000153838|mus_mus|motif|central (ssRNA)
# RNA: GGGAGUUCUACAGUCCGACGAUCAGAAAUCUUAUUAAUUGUUCUUAAUUCACUACCUUUUGAACAAGGAGUCUGCAAACGGAACGAAUGAGAUUGUUUGUUUUCCUCAUUUAAUUCUGUACAACAGAAAGAAUUUUUAAAUUUCAACAGAGGAUUGAGCAUCA
# B7: chr16:94664741:94664742:+_ENSMUSG00000040785_ENSMUST00000117648|mus_hu|mus_mus_mus_hu_False|98_98 (ssRNA)
# RNA: GGGAGUUCUACAGUCCGACGAUCUGGUACUGAUCUUUGCAUUGGAUAUUCAGGAGAAAGGCUGGCCAAGGGUGUAUAUAUGCUGGUGUACUGGGGCAAACCUGGUAACACGUUUAUGUAUGCUGGCGGUGUCUGGGUGAUAUCCAACAGAGGAUUGAGCAUCA
# B8: chr11:99246770:99246771:-_ENSMUSG00000019761_ENSMUST00000103131|mus_mus|FALSE|FALSE (ssRNA)
# RNA: GGGAGUUCUACAGUCCGACGAUCGAAGAAAUACAGAAACCACAAAACACCUUUUAGACCUUAAUUUCAAGGAGUGAACCUAUUUCCACAGACCAUUAAGACAAAAGUGUUUCUUGGACAUUUAUGUUUUCCACACGUCUGUCCCAACAGAGGAUUGAGCAUCA
# B9: 183676287_183676407_4950_CDS_ENSG00000218336_ENST00000511685|human|control|control (ssRNA)
# RNA: GGGAGUUCUACAGUCCGACGAUCAAACGUUGUCCAUCCAGUUUCAUCACUUUUAGUGGCUAAAAGGCCACUAUUGCCAUGGUAAGUAAACAAAACUAAUUCCAGUCCUUGAGCAGUCAUGCUUUUCAAACAUCCAUUUGUUCCCAACAGAGGAUUGAGCAUCA
# B10: chr2:104630212:104630213:-_ENSMUSG00000074994_ENSMUST00000117237|mus_hu|motif|central (ssRNA)
# RNA: GGGAGUUCUACAGUCCGACGAUCUGUAGUGUUAAAAGUUGAAUCCUGAAGCACCAAAGGUGAAGUGGUAGCAAAGUUUCGGUUGCUGAAGGUGGUGGGAUGCUGAUAAGCAGAGAGAGAUGGUGGAAGUGUUCCAGUGCUUGGCAACAGAGGAUUGAGCAUCA
# B11: 99633858_99633978_4024_3pUTR_ENSG00000106261_ENST00000324306|human|control|control (ssRNA)
# RNA: GGGAGUUCUACAGUCCGACGAUCUUGAAGAAAAUCCUUAAAACAUUUUCUGCCUCCAUUUUAGUUACUUAGAUAUACUCUUCUGGAGUAAUGGGUUUUUCUUCCGUUGCAUGGGUAGAAAUAUCCUAGUGACUGGUUGACUUGCAACAGAGGAUUGAGCAUCA
# B12: 143722256_143722376_295_CDS_ENSMUSG00000029581_ENSMUST00000031565|mouse|control|control (ssRNA)
# RNA: GGGAGUUCUACAGUCCGACGAUCCUCGCGCUCGCAGGUCACGUUGCCGUCCUUGUCGGCGGCCAGGUAGCGACCCAGGUGGCUGCGCAGACACACGGCCGCGCUGCCCGCCUCAUCGGGAGGUUGCUCCAGCGUCCAGAUCUGCAACAGAGGAUUGAGCAUCA
# B13: chr11:20126016:20126017:+_ENSMUSG00000020149_ENSMUST00000020358|mus_mus|motif|central (ssRNA)
# RNA: GGGAGUUCUACAGUCCGACGAUCGGGAAAAAAGCCAGGCGUGGCGGCGCACACCUUCAGUCUCAGCACUCAGAGACAGAGCGGGGUGGAUCCCUGAGUUCGAGGCCAGCCUGGUCUACAGAGAGAGUUCCAGGACAGCCAGGGCAACAGAGGAUUGAGCAUCA
# B14: chr18:35832659:35832660:-_ENSMUSG00000024350_ENSMUST00000025208|mus_mus|FALSE|FALSE (ssRNA)
# RNA: GGGAGUUCUACAGUCCGACGAUCAGCCUGGUCUACAGUGAGUUCCAGGACAGCCAGGGCUACAUAAAAUUAAAAAUUUAAAACAAAACAACAAAACCCAAACAAUCAAGAAGUUGUUCAAGGUUUUUGACUGUAUAUGAAUUUCAACAGAGGAUUGAGCAUCA
# Target: T1, UNK ZnF1-3
# Experiment: nsRBNS (natural sequence RNA bind-n-seq); RBNS binding buffer (assumed for nsRBNS): 25 mM Tris pH 7.5, 150 mM KCl, 3 mM MgCl2, 0.01% Triton X-100, 500 ug/ml BSA, 20 U/ml SUPERase-In, 4 C; UNK is unkempt and MSI1 is Musashi-1; names of the RNAs are library labels; protein concentration not given here; high values mean tight binding
row,Binder,binding signal [enrichment R]
1,B1,2.02
2,B2,1
3,B3,0.419
4,B4,1.05
5,B5,0.391
6,B6,0.641
7,B7,1.17
8,B8,0.737
9,B9,1.16
10,B10,2.37
11,B11,0.727
12,B12,0.562
13,B13,0.833
14,B14,2.25
